Measured values from the BET-seq Pho4 binding data (Le et al. 2018).
The other results are listed elsewhere or left out. The energies were worked out here from pooled read counts, against the library average; single values are noisy.

These sequences were tested against T1, Pho4 (S. cerevisiae) (UniProt P07270) (assay: relative binding free energy (BET-seq); higher = weaker binding). Conditions: reference: library average.
T1 sequence: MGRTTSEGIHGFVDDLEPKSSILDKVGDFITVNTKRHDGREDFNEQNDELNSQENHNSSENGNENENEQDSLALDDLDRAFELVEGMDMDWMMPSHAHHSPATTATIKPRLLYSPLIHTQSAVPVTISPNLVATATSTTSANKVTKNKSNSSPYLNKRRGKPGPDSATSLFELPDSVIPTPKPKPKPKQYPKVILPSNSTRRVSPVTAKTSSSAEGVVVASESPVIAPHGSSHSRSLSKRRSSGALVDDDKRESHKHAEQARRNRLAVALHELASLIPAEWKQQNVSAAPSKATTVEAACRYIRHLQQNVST

| Sequence | relative binding free energy |
| --- | --- |
| GCGTGCACGTGTTATT | 0.04 kcal/mol |
| TTAGACACGTGTTGGT | 0.01 kcal/mol |
| GGGGGCACGTGTTTGC | -0.04 kcal/mol |
| AGTTCCACGTGGTAGT | 0.03 kcal/mol |
| GGTTGCACGTGGCTGC | 0.05 kcal/mol |
| TTTGACACGTGAGCGG | 0.2 kcal/mol |
| GGTTGCACGTGATATG | 0.06 kcal/mol |
| TGATTCACGTGATATG | 0.32 kcal/mol |
| GTTTCCACGTGGTGGG | 0.13 kcal/mol |
| ACGGTCACGTGGTAGA | 0.08 kcal/mol |
| AAAGTCACGTGGGCTA | 0.02 kcal/mol |
| TGTGTCACGTGCCTGT | -0.06 kcal/mol |
| GGATGCACGTGAAGGG | 0.26 kcal/mol |
| CGTAACACGTGAGGGT | 0.29 kcal/mol |
| AGAGGCACGTGTGTCA | -0.05 kcal/mol |
| ACAGGCACGTGGTTTT | -0.12 kcal/mol |
| ATTTCCACGTGTGGCG | 0.22 kcal/mol |
| ATGGGCACGTGGCTGT | -0.16 kcal/mol |
| AATAGCACGTGTCGTT | -0.1 kcal/mol |
| GGCGTCACGTGTGGAC | 0.25 kcal/mol |
| TATTTCACGTGGCTAG | 0.29 kcal/mol |
| CTATTCACGTGTTCGT | 0.3 kcal/mol |
| GGGGGCACGTGATCGG | -0.07 kcal/mol |
| TATTACACGTGAGGTT | 0.3 kcal/mol |
| TTTAACACGTGGGCGC | -0.01 kcal/mol |

| Sequence | relative binding free energy |
| --- | --- |
| GGAGTCACGTGTGCCG | 0.15 kcal/mol |
| CGATTCACGTGCGGGG | 0.08 kcal/mol |
| GTGTACACGTGTTGCT | 0.03 kcal/mol |
| TGGTGCACGTGGGGCG | -0.08 kcal/mol |
| CAGGGCACGTGCCGGT | -0.08 kcal/mol |
| AAGGTCACGTGTGTAA | 0.17 kcal/mol |
| TAGTCCACGTGGCGGT | -0.1 kcal/mol |
| AGCATCACGTGGGGTT | 0.06 kcal/mol |
| TTAGGCACGTGGGACG | -0.24 kcal/mol |
| TAAGTCACGTGGTTGA | 0.02 kcal/mol |
| TATGTCACGTGGATGC | 0.2 kcal/mol |
| GCGGGCACGTGTTGTA | -0.16 kcal/mol |
| GTTGGCACGTGCGAGA | 0.04 kcal/mol |
| GTTGGCACGTGGGAGT | -0.06 kcal/mol |
| GGTAGCACGTGTGCTG | -0.09 kcal/mol |
| TGGGGCACGTGTGACT | -0.09 kcal/mol |
| TGTGCCACGTGTTGTT | -0.06 kcal/mol |
| GGGGCCACGTGTGGAA | 0.02 kcal/mol |
| ATTGTCACGTGGTTAG | 0.12 kcal/mol |
| TAGTTCACGTGAGGAC | 0.37 kcal/mol |
| GGCTTCACGTGGTGCT | 0.32 kcal/mol |
| ATCAGCACGTGAGGTT | 0.18 kcal/mol |
| AGTGGCACGTGCATGC | -0.21 kcal/mol |
| GTGGGCACGTGAGGAA | 0.24 kcal/mol |
| AGTTTCACGTGTGGAC | 0.37 kcal/mol |

| Sequence | relative binding free energy |
| --- | --- |
| ATGTTCACGTGGTTTC | 0.32 kcal/mol |
| ATGTTCACGTGCTATT | 0.08 kcal/mol |
| CAGGGCACGTGGGATG | -0.2 kcal/mol |
| TTGGACACGTGGATGC | 0.06 kcal/mol |
| TTGGGCACGTGAGTAG | 0.09 kcal/mol |
| CGTGTCACGTGTTAAT | 0.06 kcal/mol |
| TCATGCACGTGGAATG | 0.12 kcal/mol |
| GGTGTCACGTGCTTAG | 0.12 kcal/mol |
| TAGATCACGTGTCAGT | 0.19 kcal/mol |
| GTGGGCACGTGGGAAG | -0.1 kcal/mol |
| TGTGCCACGTGTATGT | -0.19 kcal/mol |
| AGGGGCACGTGTGCGA | -0.14 kcal/mol |
| AATAACACGTGTGATG | 0.12 kcal/mol |
| AGTTGCACGTGGTCTT | 0.03 kcal/mol |
| ACTATCACGTGGTGTT | 0.13 kcal/mol |
| TGTAACACGTGTTGCG | 0.05 kcal/mol |
| TGAGCCACGTGAGGGG | 0.14 kcal/mol |
| CGGTTCACGTGGCGGT | 0.19 kcal/mol |
| ATGATCACGTGCTTGT | 0.07 kcal/mol |
| GTTAGCACGTGTGTAG | -0.04 kcal/mol |
| GTTGTCACGTGTTGTG | 0.25 kcal/mol |
| GATGACACGTGGCCGT | 0.18 kcal/mol |
| AAGGGCACGTGGAGCG | -0.25 kcal/mol |
| GGTTTCACGTGGTGAA | 0.32 kcal/mol |
| TTGCTCACGTGAATGT | 0.24 kcal/mol |

| Sequence | relative binding free energy |
| --- | --- |
| TTACTCACGTGCTTTT | 0.2 kcal/mol |
| GGTGACACGTGGGGGG | -0.04 kcal/mol |
| CAGTTCACGTGATTGG | 0.42 kcal/mol |
| TTGTACACGTGAAAAT | 0.26 kcal/mol |
| TTTTTCACGTGTAGTT | 0.23 kcal/mol |
| GGATGCACGTGCTTGG | -0.09 kcal/mol |
| GAGTTCACGTGTCAGT | 0.4 kcal/mol |
| GTTTCCACGTGAGTTT | 0.44 kcal/mol |
| TGTGGCACGTGGATAT | -0.07 kcal/mol |
| TCTTGCACGTGTATTG | 0.04 kcal/mol |
| AGGCTCACGTGAGGGC | 0.36 kcal/mol |
| CTGTTCACGTGTTTTG | 0.15 kcal/mol |
| GTAATCACGTGGGTTT | 0.09 kcal/mol |
| TTGATCACGTGGGCGC | -0.07 kcal/mol |
| CTTGACACGTGATGGG | -0.01 kcal/mol |
| TTATGCACGTGTTATC | -0.2 kcal/mol |
| GGAATCACGTGTAGGG | 0.07 kcal/mol |
| ACGTTCACGTGGTGAT | 0.13 kcal/mol |
| ATGATCACGTGACTGT | 0.24 kcal/mol |
| CGTAACACGTGGTAAG | 0.02 kcal/mol |
| TATCTCACGTGTTTGG | 0.11 kcal/mol |
| GGGGGCACGTGCAGTC | -0.1 kcal/mol |
| AATTACACGTGGTGCG | -0.05 kcal/mol |
| TAGTTCACGTGGAGGC | 0.31 kcal/mol |
| GTCGGCACGTGGACGG | -0.05 kcal/mol |

| Sequence | relative binding free energy |
| --- | --- |
| GAGGGCACGTGGGGTC | -0.1 kcal/mol |
| TGGCGCACGTGGTGTC | -0.29 kcal/mol |
| GGAGCCACGTGAGAGT | 0.2 kcal/mol |
| TGATACACGTGTATTT | 0.03 kcal/mol |
| TTGGTCACGTGTATTG | 0.13 kcal/mol |
| TCGGGCACGTGCGGGA | -0.09 kcal/mol |
| TGGCGCACGTGAGGCT | 0.06 kcal/mol |
| TCTCACACGTGTTTGT | 0.2 kcal/mol |
| TTAAGCACGTGGTTTC | -0.12 kcal/mol |
| TTGGACACGTGCGGAG | 0.07 kcal/mol |
| TGGACCACGTGTAGGT | 0.03 kcal/mol |
| CAGTGCACGTGAGTCT | 0.35 kcal/mol |
| AATCGCACGTGGAAGT | 0.25 kcal/mol |
| GTGCGCACGTGATGTT | 0.07 kcal/mol |
| TCTAGCACGTGTGCTG | 0.05 kcal/mol |
| TGGGGCACGTGAACGA | 0.03 kcal/mol |
| TTTATCACGTGGTGCC | 0.08 kcal/mol |
| CAGGACACGTGTGCGG | -0.08 kcal/mol |
| AGGGGCACGTGTTAGG | -0.17 kcal/mol |
| ATAGTCACGTGATTGT | 0.12 kcal/mol |
| TATGACACGTGGTTAG | -0.05 kcal/mol |
| CAAAACACGTGGTGGG | -0.1 kcal/mol |
| ATATTCACGTGTCGGT | 0.27 kcal/mol |
| AGTATCACGTGCTTGT | 0.02 kcal/mol |
| CATAGCACGTGGAGTG | -0.14 kcal/mol |

| Sequence | relative binding free energy |
| --- | --- |
| TTGTACACGTGGGTTT | -0.13 kcal/mol |
| CTGTCCACGTGGTTTG | -0.08 kcal/mol |
| TGGTTCACGTGATTCG | 0.24 kcal/mol |
| TATGACACGTGACGGT | 0.01 kcal/mol |
| AGGGGCACGTGTGTTT | -0.06 kcal/mol |
| AGTGCCACGTGTTAAA | 0.01 kcal/mol |
| CGTAGCACGTGTGCGT | -0.01 kcal/mol |
| TGTAGCACGTGGCTGA | -0.12 kcal/mol |
| AGTGTCACGTGGCTGG | 0 kcal/mol |
| GTGCACACGTGCGGGT | 0.01 kcal/mol |
| TTTTTCACGTGCGGTG | 0.26 kcal/mol |
| AGTTCCACGTGGTGTG | 0.09 kcal/mol |
| AATGTCACGTGTGGAG | 0.18 kcal/mol |
| ATACTCACGTGTTGGT | 0.13 kcal/mol |
| AGCATCACGTGGGGGG | -0.02 kcal/mol |
| CAATTCACGTGTAGGG | 0.24 kcal/mol |
| GGCTACACGTGTTTTG | 0.09 kcal/mol |
| AGCGGCACGTGGAGGA | -0.1 kcal/mol |
| AGGGGCACGTGATTCT | -0.04 kcal/mol |
| TCGGCCACGTGGGGTT | -0.19 kcal/mol |
| GTGGCCACGTGGAAGG | -0.02 kcal/mol |
